Some of the results follow.
Tests used:
HSkMC = human skeletal muscle cells; test: cytotoxicity call (relative viability < 0.9); conditions: 10 µM
S. aureus RN4220 = test: growth inhibition call (relative growth <= 0.2); conditions: 50 µM

**Q.** With `Cc1noc(C)c1NC(=O)Nc1ccc2c(c1)C(=O)N([C@H](C)CO)C[C@H](C)[C@H](CN(C)CC1CCCCC1)OCCCC[C@@H](C)O2` as the compound, how does the cytotoxicity call (HSkMC) read?
**A.** Its cytotoxicity call is “inactive”.

**Q.** And the growth inhibition call (S. aureus RN4220)?
**A.** The growth inhibition call was “inactive”.

**Q.** Which cytotoxicity call (HSkMC) does the source give for `C[C@H](CO)N1C[C@H](C)[C@H](CN(C)Cc2ccc3c(c2)OCO3)Oc2c(NS(=O)(=O)c3cn(C)cn3)cccc2C1=O` here?
**A.** The cytotoxicity call was “inactive”.

**Q.** What about the growth inhibition call (S. aureus RN4220) of the same compound?
**A.** The growth inhibition call was “inactive”.

**Q.** With `C[C@@H]1CN([C@@H](C)CO)C(=O)c2cccc(NC(=O)Nc3ccc(C(F)(F)F)cc3)c2O[C@H]1CN(C)Cc1ccc2c(c1)OCO2` as the compound, how does the cytotoxicity call (HSkMC) read?
**A.** The cytotoxicity call was “active”.

**Q.** And the growth inhibition call (S. aureus RN4220)?
**A.** The growth inhibition call was “inactive”.

**Q.** `C[C@@H]1CN([C@@H](C)CO)C(=O)c2cc(NC(=O)Nc3ccc(F)cc3)ccc2O[C@@H](C)CCCCO[C@@H]1CN(C)S(=O)(=O)c1ccc(F)cc1` was tested. Which cytotoxicity call (HSkMC) did it give?
**A.** The cytotoxicity call was “inactive”.

**Q.** And the growth inhibition call (S. aureus RN4220)?
**A.** The growth inhibition call was “inactive”.

**Q.** What does the source list for `CC(C)C[C@H](NC(=O)[C@@H](COC(C)(C)C)NC(=O)[C@H](Cc1ccc(O)cc1)NC(=O)[C@H](CO)NC(=O)[C@H](Cc1c[nH]c2ccccc12)NC(=O)[C@H](Cc1cnc[nH]1)NC(=O)[C@@H]1CCC(=O)N1)C(=O)N[C@@H](CCCNC(=N)N)C(=O)N1CCC[C@H]1C(=O)NNC(N)=O`?
**A.** cytotoxicity call (HSkMC): inactive; growth inhibition call (S. aureus RN4220): inactive

**Q.** How did the cytotoxicity call (HSkMC) turn out when `C[C@@H](N)c1cnn(-c2ccccc2F)c1` was run?
**A.** The cytotoxicity call was “inactive”.

**Q.** What about the growth inhibition call (S. aureus RN4220) of the same compound?
**A.** The growth inhibition call was “inactive”.

**Q.** With `COc1ccc([Si](C)(C)[C@@H]2[C@@H](CCO)O[C@]3(C(=O)N(Cc4ccc(N5C(=O)c6cccc7cccc5c67)cc4)c4ccccc43)[C@H]2C)cc1` as the compound, how does the cytotoxicity call (HSkMC) read?
**A.** The cytotoxicity call was “inactive”.

**Q.** And the growth inhibition call (S. aureus RN4220)?
**A.** Its growth inhibition call is “inactive”.

**Q.** `CNC(=O)Nc1ccc(S(N)(=O)=O)cc1` was tested. Which cytotoxicity call (HSkMC) did it give?
**A.** The cytotoxicity call was “inactive”.

**Q.** And the growth inhibition call (S. aureus RN4220)?
**A.** The growth inhibition call was “inactive”.

**Q.** Which cytotoxicity call (HSkMC) does the source give for `COc1ccc(CN(C)C[C@H]2OCCCC[C@@H](C)Oc3ccc(NS(=O)(=O)c4c(C)noc4C)cc3C(=O)N([C@H](C)CO)C[C@@H]2C)cc1` here?
**A.** The cytotoxicity call was “inactive”.

**Q.** And the growth inhibition call (S. aureus RN4220)?
**A.** The growth inhibition call was “inactive”.

**Q.** With `NS(=O)(=O)c1ccc(O)c([N+](=O)[O-])c1` as the compound, how does the cytotoxicity call (HSkMC) read?
**A.** Its cytotoxicity call is “inactive”.

**Q.** What about the growth inhibition call (S. aureus RN4220) of the same compound?
**A.** Its growth inhibition call is “inactive”.

**Q.** What does the source list for `C[C@@H]1CCCCO[C@H](CN(C)C(=O)Nc2ccc(C(F)(F)F)cc2)[C@@H](C)CN([C@H](C)CO)C(=O)c2cc(NS(=O)(=O)c3ccc(F)cc3)ccc2O1`?
**A.** cytotoxicity call (HSkMC): inactive; growth inhibition call (S. aureus RN4220): inactive

**Q.** `C[C@@H]1CN([C@@H](C)CO)C(=O)c2cc(NS(=O)(=O)c3ccc(F)cc3)ccc2O[C@@H]1CN(C)S(=O)(=O)c1ccccc1` was tested. Which cytotoxicity call (HSkMC) did it give?
**A.** The cytotoxicity call was “inactive”.

**Q.** And the growth inhibition call (S. aureus RN4220)?
**A.** Its growth inhibition call is “inactive”.

**Q.** `C[C@H](CO)N1C[C@H](C)[C@H](CN(C)Cc2cccc3c2OCCCO3)OCc2cn(nn2)CCCC1=O` was tested. Which cytotoxicity call (HSkMC) did it give?
**A.** The cytotoxicity call was “inactive”.

**Q.** What about the growth inhibition call (S. aureus RN4220) of the same compound?
**A.** The growth inhibition call was “inactive”.

**Q.** Which results are given for `C[C@@H]1CN([C@@H](C)CO)C(=O)Cc2cc(NS(=O)(=O)c3ccc(F)cc3)ccc2O[C@@H]1CN(C)Cc1ccncc1`?
**A.** cytotoxicity call (HSkMC): inactive; growth inhibition call (S. aureus RN4220): inactive

**Q.** With `CO[C@H]1CN(C)C(=O)c2cc(NS(=O)(=O)c3cn(C)cn3)ccc2OC[C@H](C)N(CC2CC2)C[C@H]1C` as the compound, how does the cytotoxicity call (HSkMC) read?
**A.** The cytotoxicity call was “inactive”.

**Q.** What about the growth inhibition call (S. aureus RN4220) of the same compound?
**A.** The growth inhibition call was “inactive”.

**Q.** For `CN(C)CCC=C1c2ccccc2COc2ccc(CC(=O)O)cc21.Cl`, which cytotoxicity call (HSkMC) is on record?
**A.** The cytotoxicity call was “inactive”.

**Q.** And the growth inhibition call (S. aureus RN4220)?
**A.** Its growth inhibition call is “active”.

**Q.** With `O=C(C[C@@H]1CC[C@@H]2[C@H](COC[C@@H](O)CN2Cc2cc(F)ccc2F)O1)N[C@H]1CCN(Cc2ccccc2)C1` as the compound, how does the cytotoxicity call (HSkMC) read?
**A.** The cytotoxicity call was “inactive”.

**Q.** What about the growth inhibition call (S. aureus RN4220) of the same compound?
**A.** Its growth inhibition call is “inactive”.

**Q.** With `O=C(C[C@@H]1CC[C@H]2[C@@H](COC[C@@H](O)CN2C(=O)Nc2ccc(C(F)(F)F)cc2)O1)NCCc1ccncc1` as the compound, how does the cytotoxicity call (HSkMC) read?
**A.** The cytotoxicity call was “inactive”.

**Q.** What about the growth inhibition call (S. aureus RN4220) of the same compound?
**A.** Its growth inhibition call is “active”.

**Q.** What does the source list for `Cc1noc(C)c1S(=O)(=O)Nc1ccc2c(c1)C(=O)N([C@H](C)CO)C[C@@H](C)[C@H](CN(C)CC1CCCCC1)OCCCC[C@@H](C)O2`?
**A.** cytotoxicity call (HSkMC): inactive; growth inhibition call (S. aureus RN4220): inactive

**Q.** Which cytotoxicity call (HSkMC) does the source give for `C[C@H](CO)N1C[C@H](C)[C@H](CN(C)Cc2cccc(C(F)(F)F)c2)Oc2ncc(-c3ccc(F)cc3)cc2C1=O` here?
**A.** The cytotoxicity call was “inactive”.

**Q.** What about the growth inhibition call (S. aureus RN4220) of the same compound?
**A.** Its growth inhibition call is “inactive”.

**Q.** How did the cytotoxicity call (HSkMC) turn out when `C[C@@H]1CCCCO[C@@H](CN(C)Cc2ccc(C(=O)O)cc2)[C@H](C)CN([C@H](C)CO)C(=O)c2cc(NC(=O)Nc3ccc(C(F)(F)F)cc3)ccc2O1` was run?
**A.** Its cytotoxicity call is “inactive”.

**Q.** What about the growth inhibition call (S. aureus RN4220) of the same compound?
**A.** Its growth inhibition call is “inactive”.

**Q.** `COCC(=O)N1CC(=O)N2[C@H](C1)[C@@H](c1ccc(C#Cc3cccnc3)cc1)[C@@H]2CO` was tested. Which cytotoxicity call (HSkMC) did it give?
**A.** The cytotoxicity call was “inactive”.

**Q.** And the growth inhibition call (S. aureus RN4220)?
**A.** Its growth inhibition call is “inactive”.

**Q.** What does the source list for `COc1ccc(CN(C)C[C@@H]2Oc3c(NS(=O)(=O)c4cn(C)cn4)cccc3C(=O)N([C@H](C)CO)C[C@H]2C)cc1`?
**A.** cytotoxicity call (HSkMC): inactive; growth inhibition call (S. aureus RN4220): inactive

**Q.** `CC(=O)O[C@@H]1[C@@H](O)C[C@@]2(C)[C@@H](CC[C@@H](C)[C@@]23Cc2c(O)cc4c(c2O3)CN([C@@H](CCC(=O)O)C(=O)O)C4=O)C1(C)C` was tested. Which cytotoxicity call (HSkMC) did it give?
**A.** The cytotoxicity call was “inactive”.

**Q.** What about the growth inhibition call (S. aureus RN4220) of the same compound?
**A.** The growth inhibition call was “inactive”.

**Q.** With `C[C@@H]1CN([C@@H](C)CO)C(=O)c2cc(NC(=O)Nc3cccc4ccccc34)ccc2O[C@@H](C)CCCCO[C@@H]1CN(C)Cc1ccncc1` as the compound, how does the cytotoxicity call (HSkMC) read?
**A.** Its cytotoxicity call is “inactive”.

**Q.** And the growth inhibition call (S. aureus RN4220)?
**A.** The growth inhibition call was “inactive”.

Source: the antibiotic and cytotoxicity screens of Wong et al. (2023)
